The text below walks through data of the supplement of paper PMC6135742.

Structures can show the parent of a compound that is named as a salt. ± gives the standard deviation of the averaged measurements. The full ranking holds about 2,600 compounds; the median of “total cell number (DAPI+ nuclei) relative to DMSO vehicle control” is about -1.4, and the lowest 2% start at about -23. This is one part of the list.

For the experiment, the system named is jimpy (Plp1 jimpy) mouse iPSC-derived oligodendrocyte progenitor cells. Briefly: total cell number (DAPI+ nuclei) relative to DMSO vehicle control (SDs above negative control mean); higher = more surviving cells. The note with it: 10 µM; 3 days.
Turning to `CCCCCCCCCCCCCCSCC(=O)O` [Tetradecylthioacetic acid], the total cell number was -0.695.

Consider `CN1CCC(NC(=O)c2cc(-c3c(O)cc(O)cc3Oc3ccc([N+](=O)[O-])cc3)on2)CC1`, for which the total cell number is -15.7. To `CC(C)NC[C@H](O)COc1cccc2[nH]ccc12` [S(-)-Pindolol] belongs -2.38. The figure for `Cc1cnc(C(=O)NCCc2ccc(S(=O)(=O)NC(=O)NC3CCCCC3)cc2)cn1` [Glipizide] is -0.732 ± 0.42; for `Cc1cc(-c2ncc(CC(=O)Nc3ccc(-c4cnccn4)cn3)cc2C)ccn1` it is 1.55; for `O=C1[C@H](CC[C@H](O)c2ccc(F)cc2)[C@@H](c2ccc(O)cc2)N1c1ccc(F)cc1` [Ezetimibe] it is -1.4. On to `COc1ccccc1N1CCN(CCCCNC(=O)c2ccc3ccccc3c2)CC1`, for which the total cell number was -5.13.

Take `CCN(CC)CCOc1ccc(C(=C(Cl)c2ccccc2)c2ccccc2)cc1` [Clomifene citrate]: the total cell number was -13.2.

Regarding `CCCCCOC(=O)Nc1nc(=O)n([C@@H]2O[C@H](C)[C@@H](O)[C@H]2O)cc1F` [Capecitabine], the total cell number was -1.2 ± 0.52. The figure for `COc1ccc2c(c1)CC[C@@H]1[C@@H]2CC[C@]2(C)[C@@H](NCCCCCCN3C(=O)CCC3=O)CC[C@@H]12` is -2.42; for `COc1ccc(NC(=O)c2ccc(-c3ccc(-c4noc(C)n4)cc3C)cc2)cc1N1CCN(C)CC1` it is -11.4. The figure for `CCCCNc1ccc(C(=O)OCCN(C)C)cc1` [Tetracaine hydrochloride] is -1.02; for `CCCCNc1ccc(C(=O)OCCN(C)C)cc1` [Tetracaine HCl] it is 0.452; for `N=C(N)NCCCCN` [Agmatine sulfate] it is -1.01.

`CN1CCOC(c2ccccc2)c2ccccc2C1` (stereo not drawn) [Nefopam HCl]: the total cell number was -1.99. The figure for `C[C@H](CSC(=O)c1ccccc1)C(=O)N1C[C@@H](Sc2ccccc2)C[C@H]1C(=O)O` [Zofenopril calcium] is -2.18; for `COc1ncc(-c2ccc3nccc(-c4ccnnc4)c3c2)cc1NS(=O)(=O)c1ccc(F)cc1F` it is -12. The figure for `CN1CCC(=C2c3ccccc3CCc3sccc32)CC1` [Pizotifen Malate] is -9.56.

The compound `CNCc1cc(-c2ccccc2F)n(S(=O)(=O)c2cccnc2)c1` yielded a total cell number of -1.01.

For `Cc1ccccc1C(OCCN(C)C)c1ccccc1` (stereo not drawn) [Orphenadrine Citrate], the total cell number was -3.22. To `Cc1ccccc1C(OCCN(C)C)c1ccccc1` (stereo not drawn) [Orphenadrine hydrochloride] belongs -0.816; to `O=C1C(O)=C([C@H]2CC[C@H](c3ccc(Cl)cc3)CC2)C(=O)c2ccccc21` [Atovaquone], -0.0933. To `CC(C)NCC(O)c1ccc(O)c(O)c1` (single isomer, unassigned; (-)) [(-)-Isoproterenol hydrochloride] belongs -0.816.
